Results on 17 compounds are retold here after PubChem BioAssay AID1745853 (National Center for Advancing Translational Sciences (NCATS), 2022).

The structures appear in SMILES notation. The list shows a part of the results. These are further read-outs of the screen, such as a control signal, another cell line or another target. No call is given for them.

Holding throughout (test): Primary Screen for Target Class Profiling of Small Molecule Inhibitors of Methyltransferases
For assay [1], the target named is Glycine N-methyltransferase (Homo sapiens) (UniProt Q14749). Conditions: purified enzyme, MTase-Glo SAH luminescence; measured here: GNMT inhibition; at 40 µM; stronger effect = lower value. The gist of the method:
(§1)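 Each enzyme was assayed with SAM and its substrate. SAH formation detected by MTase-Glo luminescence; single-point 40 uM screen[…].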

Assay [2] deals with Guanidinoacetate N-methyltransferase (Homo sapiens) (UniProt Q14353). To be noted: purified enzyme, MTase-Glo SAH luminescence; measured here: GAMT inhibition; at 40 µM; stronger effect = lower value. The procedure, abridged:
as §1

For assay [3], the target named is Histamine N-methyltransferase (Homo sapiens) (UniProt P50135). To be noted: purified enzyme, MTase-Glo SAH luminescence; measured here: HNMT inhibition; at 40 µM; stronger effect = lower value. The gist of the method:
as §1

The target of assay [4] is Nicotinamide N-methyltransferase (Homo sapiens) (UniProt P40261). To be noted: purified enzyme, MTase-Glo SAH luminescence; measured here: NNMT inhibition; at 40 µM; stronger effect = lower value. The procedure, abridged: as §1
Assay [5] concerns the target Phenylethanolamine N-methyltransferase (Homo sapiens) (UniProt P11086). Conditions: purified enzyme, MTase-Glo SAH luminescence; measured here: PNMT inhibition; at 40 µM; stronger effect = lower value. The procedure, abridged: as §1
On the % scale 0 is the no-effect control and ±100 the full control effect.

Turning to `COc1ccc(CCNS(=O)(=O)c2ccc3[nH]c4c(c3c2)CCCC4)cc1OC`, the activity change, negative = inhibition in assay [1] is -20.2%; in assay [2] it was 4.09%; in assay [3], -14.3%; in assay [4], -9.66%; in assay [5] it was -0.804%.
The matching figures for `FC(F)(F)c1ccc(/C=C/c2nc(COc3ccc(CCCCn4ccnn4)cc3)co2)cc1`: -2.16%, -11.8%, 4.04%, -26.3% and -7.03%.
The matching figures for `COc1ccc2c(c1)c(NC(C)=O)c1n2CC(C)(C(=O)NC2CCCCC2)N(C2CCCC2)C1=O` (stereo not given): 8.36%, 0.939%, 10.6%, 13.5% and 4.61%.
The matching figures for `CCC1(O)CC2c3cc(OC)c(OC)cc3CCN2CC1CC(C)C` (stereo not given): -8.74%, -3%, -2.28%, -16% and -11.5%.
As to `COc1ccccc1CNC(=O)CC1COCCN1C(=O)c1cnccn1` (stereo not given), the activity change, negative = inhibition is -0.253% in assay [1]; -1.29% in assay [2]; -2.2% in assay [3]; -1.7% in assay [4]; -1.53% in assay [5].
The matching figures for `O=C1c2ccccc2C(=O)c2c(NCCc3ccc(O)cc3)ccc(NCCc3ccc(O)cc3)c21`: -42.9%, -35.6%, -81.9%, -39.7% and -41.3%.
In the case of `O=C1CN(Cc2ccc(F)cc2Cl)S(=O)(=O)c2ccccc2N1Cc1cccc(F)c1`, the activity change, negative = inhibition in assay [1] is -1.34%; in assay [2], 3.19%; in assay [3], -2.38%; in assay [4], -4.3%; in assay [5], -5.7%.
The matching figures for `Cc1ccc(C(=O)COC(=O)C(Cc2c[nH]c3ccccc23)NC(=O)c2ccco2)cc1` (stereo not given): 6.56%, 1.11%, 10.7%, -1.32% and 4.25%.
In the same order, the values of `CC1CCCCC1NC(=O)C1(C)Cn2c(cc3occc32)C(=O)N1c1ccc(Cl)cc1` (stereo not given) are -2.72%, 1.19%, 1.43%, 3.73% and 3.46%.
Take `CCOCCCN1C(=O)c2cc3c(OC)ccc(OC)c3n2CC1(C)C(=O)NC1CCCCCC1` (stereo not given): the activity change, negative = inhibition is 1.96% in assay [1]; 1.52% in assay [2]; 5.22% in assay [3]; -0.307% in assay [4]; -1.25% in assay [5].
`Cc1cc2c(cc3n2CC(C)(C(=O)NC2CCCCC2)N(CCN2CCN(C)CC2)C3=O)o1` (stereo not given): the activity change, negative = inhibition in assay [1] was 1.94%; in assay [2] it was 5.27%; in assay [3], -1.51%; in assay [4], 4.48%; in assay [5] it was -2.76%.
In the same order, the values of `CC(C)NC(=O)N1CCC2(CC1)CN(C(=O)Cc1c[nH]c3ccccc13)CCO2` are -0.795%, 0.24%, 2.44%, -8.2% and -3.43%.
Consider `O=C1NCCCCCCN[C@H]2C[C@H](c3nc(-c4cnccn4)no3)C[C@@H]12`, for which the activity change, negative = inhibition is -2.29% in assay [1]; -0.414% in assay [2]; -0.239% in assay [3]; -0.377% in assay [4]; 0.609% in assay [5].
The matching figures for `CCn1cc(CN2CCN(C(=O)c3cccs3)CC2)ccc1=O`: -59%, -33.4%, -8.14%, -11% and -35.9%.
The matching figures for `Cc1cnc(NC(=O)Nc2cc(Br)c(C)cc2OCC2CNCCO2)cn1` (stereo not given): 3.86%, 12.4%, 9.74%, -4.74% and 4.08%.
The matching figures for `Cc1cccc(N2C(=O)c3cc4occc4n3CC2(C)C(=O)NC2CCC(C)CC2)c1C` (stereo not given): -10.3%, -1.59%, -4.04%, -8.29% and -9.74%.
In the case of `O=C(O)[C@H]1C[C@@H](C(=O)NCc2ccncc2)CN(C2CCOCC2)C1`, the activity change, negative = inhibition in assay [1] is -3.93%; in assay [2], -8%; in assay [3] it was -3.59%; in assay [4], -13.1%; in assay [5], 10.5%.
